No constants are given. Whether binding was seen depends on the method and setting. Binding seen in cells or lysates may run through a third protein. Some binding calls cover weakened binding; strength is not graded here.
Key:
[1] = target: T1, Dbp6p-FPZ (S. cerevisiae) (UniProt P53734); test: co-IP; tandem affinity purification of the FPZ-tagged bait from yeast extract cleared by two ultracentrifugation steps (IgG sepharose, PreScission protease, anti-Flag beads, Flag peptide elution); buffers with 100 mM MgCl2 and 150 mM NaCl, 4°C; Coomassie or silver staining, Western; also from cells depleted of Npa2p, Dbp6p or Nop8p
T1 sequence: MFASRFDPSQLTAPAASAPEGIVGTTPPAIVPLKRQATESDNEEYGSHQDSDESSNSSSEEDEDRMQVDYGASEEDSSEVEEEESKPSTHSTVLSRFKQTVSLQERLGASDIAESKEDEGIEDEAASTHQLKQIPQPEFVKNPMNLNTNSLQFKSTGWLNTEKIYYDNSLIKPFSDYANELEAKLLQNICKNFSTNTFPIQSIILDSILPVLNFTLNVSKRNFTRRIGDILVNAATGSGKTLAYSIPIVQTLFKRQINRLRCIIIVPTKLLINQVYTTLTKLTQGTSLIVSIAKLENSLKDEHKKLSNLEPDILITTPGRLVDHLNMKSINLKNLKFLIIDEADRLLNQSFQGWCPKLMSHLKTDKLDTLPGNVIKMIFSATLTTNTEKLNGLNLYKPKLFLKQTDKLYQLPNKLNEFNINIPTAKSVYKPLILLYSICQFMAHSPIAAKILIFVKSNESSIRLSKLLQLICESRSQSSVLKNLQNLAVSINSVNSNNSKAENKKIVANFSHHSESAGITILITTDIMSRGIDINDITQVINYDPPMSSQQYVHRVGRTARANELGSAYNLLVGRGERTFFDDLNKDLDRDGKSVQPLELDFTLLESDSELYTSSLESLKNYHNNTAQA

[2] = target: T1, Dbp6p-FPZ (S. cerevisiae); test: co-IP; tandem affinity purification of the FPZ-tagged bait from yeast extract (IgG sepharose, PreScission protease, anti-Flag beads, Flag peptide elution); buffers with 10 mM MgCl2 and 150 mM NaCl, 4°C; Coomassie staining, Western; also rrn3/RSA3-FPZ cells at 24°C or shifted to 37°C for 6 hours, and cells depleted of Npa1p or Npa2p where binding is kept

binding [1]: no binding (condition: 100 mM MgCl2) | binding [2]: binds
B1: Npa2p (protein, UniProt P47108 1-1174)
chain: MGDLTEELSIPDNAQDLSKLLRSTSTKPHQIAEIVSKFDKLETYFPKKEIFVLDLLIDRLNNGNLDDFKTSEHTWIIFTRLLDAINDPISIKKLLKKLKTVPVMIRTFFLWPKDKLLTRSVSFIKAFFAINDYLIVNFSVEESFQLLEHAINGLSSCPTTDFALSYLQDACNLTHVDNITTTDNKIATCYCKHMLLPSLRYFAQTKNSASSNQSFIRLSHFMGKFLLQPRIDYMKLNKKFVQENASEITDDMAYYYFATFVTFLSKDNFAQLEVIFTILGAKKPSLECRFLNLLSESKKTVSQEFLEALLLEMLASTDESGVLSLIPIILKLDIEVAIKHIFRLLELIQLENLNDPLFSSHIWDLIIQSHANARELSDFFAKINEYCSRKGPDSYFLINHPAYVKSITKQLFTLSSLQWKNLLQALLDQVNHDSTNRVPLYLIRICLEGLSEGASRATLDEVKPILSQVFTLESFNNSLQWDLKYHIMEVYDDIVPAEELEKIDYVLSSNIFDTTSADVEELFFYCFKLREYISFDLSDAKKKFMRHFEILDEERKSNLSYSVVSKFATLVNNNFTREQISSLIDSLLLNSTNLSSLLKNDDIFEETNITYALINKLASSYHQTFALEALIQIPIQCINKNVRVALINNLTCESFCLDSATRECLLHLLSSPTFKSNIETNFYELCEKTIMSPEMAISETGDEKKEIEDKISIFEKVWTNHLSQAKEPVSEKFLESGYDIVKQSMSLSNGDSKLIIAGFTIAKFLKPDNKHRDIQGMAISYAVKILENYSENFESETIPLFRISMSTLYKIITTGQGDISKHKSRILDIFSKIMLRYHSKKVYHAPEEQEMFLVHSLLTENKLEYIFAEYLNIEHTDKCDSALGFCLEESLKQGPDAFNRLLWNSAKSFSTISQPCAEKFVRVFIIMSKRIARDNNLGHHLFVIALLEAYTYCDIEKFGYKSYLLLFNAIKEFLVSKPWLFSQYCIEMLLPFCLKTLAFIVNHESTDEINEGFINIIEVIDHMLLVHRFKFSNRHHLFNSVLCQILEIIAIHDGTLCANSADAVARLITNYCEPYNVSNAQNGQKNNLSSKISLIKQSIRKNVLVVLTKYIQLSITTQFSLNIKKSLQPGIHAIFDILSQNELNQLNAFLDTPGKQYFKALYLQYKKVGKWRED
